Experimental data published in publication PMC4336329 (PLoS ONE, 2015).
Screen size: about 310,000 compounds; about 2,200 (0.71%) showed an effect of 50% or more. The effect is printed as a negative number. Some of the results follow.

Each compound was assayed against human ether-à-go-go-related gene (hERG) potassium channel (human, UniProt Q12809) (assay: primary screen, population patch clamp on CHO cells stably expressing hERG).
Sequence of human ether-à-go-go-related gene (hERG) potassium channel (Q12809 whole entry, looked up): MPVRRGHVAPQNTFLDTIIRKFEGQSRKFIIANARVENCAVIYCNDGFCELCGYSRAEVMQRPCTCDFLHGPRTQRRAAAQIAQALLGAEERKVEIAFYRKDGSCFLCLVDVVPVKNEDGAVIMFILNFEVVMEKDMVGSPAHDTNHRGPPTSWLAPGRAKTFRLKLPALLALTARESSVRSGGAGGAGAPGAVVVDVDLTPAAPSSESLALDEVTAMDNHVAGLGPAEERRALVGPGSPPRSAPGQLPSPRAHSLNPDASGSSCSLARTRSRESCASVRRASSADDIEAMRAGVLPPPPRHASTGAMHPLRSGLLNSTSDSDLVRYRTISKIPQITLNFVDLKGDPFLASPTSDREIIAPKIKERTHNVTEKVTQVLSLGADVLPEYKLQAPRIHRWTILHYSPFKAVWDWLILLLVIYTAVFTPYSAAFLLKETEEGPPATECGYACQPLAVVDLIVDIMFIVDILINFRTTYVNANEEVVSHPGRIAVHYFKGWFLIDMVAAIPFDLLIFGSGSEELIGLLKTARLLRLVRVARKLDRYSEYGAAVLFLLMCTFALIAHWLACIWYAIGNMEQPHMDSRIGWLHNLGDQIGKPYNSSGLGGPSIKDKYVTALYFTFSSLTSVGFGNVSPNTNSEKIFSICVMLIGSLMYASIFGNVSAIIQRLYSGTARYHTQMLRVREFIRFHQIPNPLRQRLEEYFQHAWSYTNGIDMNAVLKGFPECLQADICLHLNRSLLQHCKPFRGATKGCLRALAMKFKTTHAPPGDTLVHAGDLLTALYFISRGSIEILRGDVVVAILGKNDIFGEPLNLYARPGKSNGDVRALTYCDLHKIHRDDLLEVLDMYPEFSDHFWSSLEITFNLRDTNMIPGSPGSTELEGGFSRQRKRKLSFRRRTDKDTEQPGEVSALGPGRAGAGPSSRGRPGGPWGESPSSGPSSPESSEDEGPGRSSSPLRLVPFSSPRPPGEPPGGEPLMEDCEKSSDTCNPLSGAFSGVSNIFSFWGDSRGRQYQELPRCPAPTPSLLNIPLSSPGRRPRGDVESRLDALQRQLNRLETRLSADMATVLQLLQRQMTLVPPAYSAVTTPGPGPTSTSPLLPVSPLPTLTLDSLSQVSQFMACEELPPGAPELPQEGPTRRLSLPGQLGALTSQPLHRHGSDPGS

| Structure (SMILES) | hERG current change (%, negative = inhibition) at 1uM [%] |
| --- | --- |
| CCc1cc2cc(C)cc(C)c2[nH]c1=S | 12.6 |
| Cc1ccc(N(C)/N=C/c2ccc(Cl)cc2Cl)nn1 | 2.55 |
| COc1ccc(CNC(=O)c2cc3c(=O)n4ccccc4nc3n(Cc3cccnc3)c2=N)cc1 | -32.6 |
| CC1(C)CC(=O)c2sc(NC(=O)CCS(=O)(=O)c3ccccc3)nc2C1 | 3.35 |
| CC1Cc2cc(/C(O)=C3\C(=O)C(=O)N(CCN4CCOCC4)C3c3ccccc3F)ccc2O1 (centres unmarked) | 11.6 |
| CC(C)CCNc1nc2c(cc1C#N)COC(C)(C)C2 | 11.6 |
| NS(=O)(=O)c1ccc(CNC(=S)Nc2ccc(Cl)c(Cl)c2)cc1 | 9.72 |
| COc1ccc(CNCc2cc3c(C(C)(C)C)nn(-c4ccccc4)c3[nH]c2=O)cc1 | 13 |
| COc1c(C)cc(C(=O)C2CCCN(C(=O)c3snnc3C)C2)cc1C (centres unmarked) | 1.3 |
| Cc1onc(-c2ccccc2)c1C(=O)Nc1sc2c(c1C#N)CCC(C)C2 (centres unmarked) | 6.72 |
| COc1cccc(CN(C)C(=O)C2CCN(S(=O)(=O)c3cccs3)CC2)c1OC | 6.6 |
| Cc1onc(-c2c(Cl)cccc2Cl)c1C(=O)NCCc1ccc(S(N)(=O)=O)cc1 | 6.51 |
| CCOC(=O)C1CCN(S(=O)(=O)C(F)(F)c2nc3ccccc3s2)CC1 | 3.95 |
| CC1(/[N+]([O-])=C/c2cccc(Cl)c2)CCCCC1=O (centres unmarked) | 13.5 |
| COc1cc(/C=C2\CC(C(C)(C)C)C/C(=C\c3cc(OC)c(OC)c(OC)c3)C2=O)cc(OC)c1OC (centres unmarked) | 11.4 |
| CN(CCOC(=O)c1ccc2c(c1)OCCO2)Cc1ccccc1.Cl | -3.38 |
| CCOC(=O)CCCNC(=O)COC(=O)CCC(=O)c1ccc(F)cc1 | 11.6 |
| Fc1ccc([C@@H]2CCNC[C@H]2COc2ccc3c(c2)OCO3)cc1.O=C(O)/C=C\C(=O)O | -7.27 |
| Cc1cc(OCc2nc3ccccc3s2)ccc1N | 10.2 |
| CN(Cc1ccccc1)S(=O)(=O)c1ccc2c(c1)OCCO2 | 8.86 |
| CCCOc1ccc(Oc2cc(C)nc(SC)n2)nn1 | 18.4 |
| O=C(NCc1cccnc1)c1cccnc1-c1nc2ccccc2s1 | 1.85 |
| Cc1ccc(C(=O)NC=C(Cl)Cl)cc1 | 14.6 |

| Structure (SMILES) | hERG current change (%, negative = inhibition) at 1uM [%] |
| --- | --- |
| CCN(C(=O)CSc1nc(N)cc(N)n1)C1CCS(=O)(=O)C1 (centres unmarked) | 7.31 |
| CCC(CC)C(=O)Nc1cccc(C(=O)Nc2nnc(C)s2)c1 | 9.33 |
| Fc1ccc(NC(=S)Nc2ccccc2Cl)cc1 | 6.51 |
| C/C(CC(=O)Nc1ccc(Cl)cc1)=N\NC(=O)C(=O)N1CCCCC1 | 8.4 |
| C[C@H](NC(=O)OC(C)(C)C)c1nnc(SCC(=O)Nc2cccc(Cl)c2)o1 | 14.1 |
| Cc1ccc(/C=C2\SC(=S)N(CCC(=O)N3CCCCC3)C2=O)cc1 | 9.65 |
| CCOC(=O)c1sc(N(C)C(C)=O)nc1C | 15.2 |
| COC(=O)c1ccncc1C(=O)Nc1ccc(OC)cc1 | 17.3 |
| O=C(N1CCN(c2ccccn2)CC1)N1c2ccccc2Sc2ccccc21 | 11.6 |
| CCC(CC)C(=O)OCC(=O)Nc1ccc(S(=O)(=O)N2CCOCC2)cc1OC | 4.38 |
| CC(C)C(=O)Nc1ccc(NC(=O)c2ccc([N+](=O)[O-])cc2Cl)cc1 | 8.68 |
| O=C(OCC(=O)c1cccs1)c1ccc(NC(=O)c2ccco2)cc1 | 6.35 |
| CCC(C)C(NC(=O)C1CCC(C)CC1)C(=O)Nc1ccc(OC)cc1OC (centres unmarked) | 2.41 |
| O=C(O)c1ccc2c(=O)n3c(nc2c1)/C(=C/c1ccccc1OC(F)F)CC3 | 15 |
| Brc1ccc2c(c1)C(c1cccs1)=NNC(c1cccnc1)=N2 | -4.3 |
| Cn1c(Br)nc2c1c(=O)n(Cc1ccccc1)c(=O)n2C | 10.7 |
| CC1(C)Cc2c(cnn2-c2ccc(F)cc2)C(NC(=O)Cn2cncn2)C1 (centres unmarked) | 7.94 |
| CCOC(=O)c1c(S(=O)(=O)Nc2ccc(C)c(F)c2)c(C)n(C)c1C | -2.18 |
| CCOc1ccccc1CNc1ncnc2ccc(-c3c(C)noc3C)cc12 | 10.4 |
| CCn1nc(NC(=O)C(C)C)c2cc3ccc(C)cc3nc21 | 13.6 |
| COc1ccccc1NC(=S)N1CCCCCC1 | 9.07 |
| N#Cc1ccc(COn2nnc3ccccc32)cc1 | 3.72 |
| Clc1ccccc1OCc1nnc(-c2ccccc2)o1 | 8.46 |

| Structure (SMILES) | hERG current change (%, negative = inhibition) at 1uM [%] |
| --- | --- |
| C=CCN=c1scc(C)n1/N=C/c1ccc(O)c(O)c1 | 9.35 |
| CC1CCN(C(=O)CSc2nnc(-c3ccc(S(=O)(=O)N4CCOCC4)cc3)n2C)CC1 | 8.1 |
| CC(C)(C)c1nn(-c2ccccc2)c2nc(Cl)c(C=O)cc12 | 16.1 |
| COC(=O)c1cc(C(O)(C(=O)OC)C(F)(F)F)c(/N=C/N(C)C)s1 (centres unmarked) | 9.37 |
| COc1ncccc1-c1nnn(-c2ccccc2)n1 | 7.69 |
| CCCCOC(=O)c1ccc(N/C(=N\S(=O)(=O)c2ccccc2)c2ccccc2)cc1 | 6.06 |
| Cn1c(Cn2nnc3ccccc32)nnc1SCC(=O)N1c2ccccc2CCc2ccccc21 | 3.84 |
| O=C1CN(C(=O)/C=C/c2ccc(Br)cc2)CCN1 | 9.57 |
| C/C(=N\NC(=O)c1ccc(-c2ccccc2)cc1)c1cccc(N)c1 | 1.25 |
| CC(C(=O)OCC(=O)c1ccccc1)N1C(=O)C2C3CCC(C3)C2C1=O (centres unmarked) | 11.4 |
| COc1ccc(Br)cc1/C=N/Nc1cccc(C(=O)O)c1 | 8.54 |
| O=C(C(Cl)c1ccccc1)N1CCCC1 (centres unmarked) | 20.1 |
| CC(=O)Nc1c2c(nn1-c1ccc(Cl)cc1)CSC2 | 13.7 |
| CN(C)S(=O)(=O)c1ccc(Cl)c(NC(=O)CN2CCCC2)c1 | 14 |
| CCOC(=O)C(C)c1nc2ccccc2[nH]c1=O (centres unmarked) | 15.1 |
| CCOC(=O)C1CCCN(CCC(C)c2ccccc2)C1 (centres unmarked) | -9.48 |
| O=C1C=C(Nc2cccc3cccnc23)c2ccccc2C1=O | 8.72 |
| N#Cc1nnn(-c2cc(Cl)cc(Cl)c2)c1N | 0.583 |
| CNC(=S)N1CCC(NC(=O)C(Cc2ccc(F)cc2)NC(C)=O)CC1 (centres unmarked) | 18.6 |
| Cc1oc2c(CN3CCCCC3C)c(O)ccc2c(=O)c1-c1ccccc1 (centres unmarked) | -7.78 |
| COc1ccc(C/C(N)=N/OC(=O)c2cccs2)cc1 | -7.72 |
| O=C(CSc1nc2ccccc2[nH]1)Nc1c(F)cccc1F | 15.8 |
| CCOC(=O)C(CC(=O)O)N1CCCCC1 (centres unmarked) | 7.18 |

| Structure (SMILES) | hERG current change (%, negative = inhibition) at 1uM [%] |
| --- | --- |
| Cc1cc2occ(CC(=O)N(CC(C)C)c3c(N)n(Cc4ccccc4)c(=O)[nH]c3=O)c2cc1C | 9.2 |
| CCOc1ccccc1NC(=O)C1CCCCN1S(=O)(=O)c1ccc(F)cc1 (centres unmarked) | 10.7 |
| CCSC(=O)N1CCCCCC1 | 11.5 |
| COc1ccc(OCC(O)CNC(=O)c2ccccc2C(=O)O)cc1 (centres unmarked) | 2.88 |
| O=C(c1cc(Cl)ccc1[N+](=O)[O-])N1CCc2ccccc2C1 | 14.7 |
| O=C(COC(=O)c1cc(Cl)ccc1O)c1ccc2c(c1)OCO2 | -7.02 |
| COc1ccc(C)cc1Nc1n[n+](-c2ccccc2)c(-c2ccc(C(=O)O)cc2)s1.[Cl-] | 16.6 |
| COc1ccc(CN(C)C(=S)Nc2ccc(Cl)cc2Cl)cc1 | 22.7 |
| CCC(C)CCN1CCN=C1Nc1ccccc1 (centres unmarked) | 13.8 |
| COc1cccc(N2CCN(c3ncnc4c3cnn4-c3ccc(C)cc3C)CC2)c1 | 6.64 |
| CCCC(C)c1nnc(NC(=O)CCS(=O)(=O)c2ccccc2)s1 (centres unmarked) | 16.5 |
| O=C1NCCN1Cc1cccc(Cl)c1 | 2.54 |
| COc1cc([C@@H]2CC=C(C(=O)O)[C@H](c3ccccc3F)N2S(=O)(=O)c2ccc(C)cc2)cc(OC)c1OC | 16.7 |
| C/C(=N\NC(=O)CN1CCN(S(=O)(=O)c2ccc(C)cc2)CC1)c1cccnc1 | -7.5 |
| CNCCCc1ccccc1.Cl | -11 |
| CCCCCNCc1ccc(OCc2ccc(Cl)nc2)c(OC)c1 | -7.27 |
| Br.O=C(Cn1c(NCCO)nc2ccccc21)c1cccs1 | 14.1 |
| CCn1cc(CN2CCN(CCC(C)C)C(CCO)C2)c2ccccc21 (centres unmarked) | 6.41 |
| O=c1[nH]c2ccccc2nc1/C=C(\O)C1CC1 | 12.8 |
| C/C(=N/N=C(/C)c1cccs1)c1cccs1 | 16.4 |
| CC(=O)c1c(O)ccc2c(-c3ccccc3)cc(=O)oc12 | -4.62 |
| OCCN(Cc1ccccc1)c1ncnc2sccc12 | 12.2 |
| COc1cc(Br)c(CNCCc2ccc3c(c2)OCO3)cc1OC | 0.0424 |
